Test results: the supplement of paper PMC3334620
Whole data set: some 33,000 sequences, median “E-score (-0.5 to 0.5)” near -0.043, cut for the highest 2% near 0.37. This is one part of the list.

The sequences below were run against T1, Upc2 (UniProt Q12151) (assay: PBM E-score (8-mer binding enrichment) (E-score (-0.5 to 0.5)); higher = stronger / more preferred TF binding; most listed sequences are background and not binding sites). Conditions: protein concentration: 200 nM; construct: GST-full length.
T1 sequence: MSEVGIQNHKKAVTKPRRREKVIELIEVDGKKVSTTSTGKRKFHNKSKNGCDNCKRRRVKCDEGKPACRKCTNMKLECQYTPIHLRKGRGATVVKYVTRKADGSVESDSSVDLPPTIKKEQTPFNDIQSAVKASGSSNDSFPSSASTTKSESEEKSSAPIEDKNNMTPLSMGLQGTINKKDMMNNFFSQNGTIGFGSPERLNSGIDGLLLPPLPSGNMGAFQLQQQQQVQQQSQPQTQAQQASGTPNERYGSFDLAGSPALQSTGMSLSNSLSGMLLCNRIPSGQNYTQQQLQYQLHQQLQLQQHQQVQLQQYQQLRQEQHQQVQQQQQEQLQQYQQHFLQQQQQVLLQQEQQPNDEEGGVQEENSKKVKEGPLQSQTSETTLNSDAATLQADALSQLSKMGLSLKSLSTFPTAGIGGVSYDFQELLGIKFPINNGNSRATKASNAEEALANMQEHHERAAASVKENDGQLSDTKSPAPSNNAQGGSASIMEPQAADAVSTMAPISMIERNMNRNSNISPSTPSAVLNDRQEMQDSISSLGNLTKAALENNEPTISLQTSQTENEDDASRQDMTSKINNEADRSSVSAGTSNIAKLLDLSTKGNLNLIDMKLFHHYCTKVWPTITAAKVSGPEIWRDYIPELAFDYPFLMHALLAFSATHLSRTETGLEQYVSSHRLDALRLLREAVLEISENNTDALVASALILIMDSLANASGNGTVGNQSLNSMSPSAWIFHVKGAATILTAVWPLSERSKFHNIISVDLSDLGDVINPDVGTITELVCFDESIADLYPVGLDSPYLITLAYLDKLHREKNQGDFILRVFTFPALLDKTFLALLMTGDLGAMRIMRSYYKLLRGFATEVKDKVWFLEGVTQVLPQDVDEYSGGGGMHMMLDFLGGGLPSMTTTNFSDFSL
Method in brief: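 Universal all-10-mer Agilent arrays, double-stranded by primer extension on fresh or once-stripped slides, were probed with about 100-200 nM GST-tagged yeast transcription factors made by PURExpress. Fluorescent anti-GST detected bound protein, and masliner normalised the scans. E-scores from the Universal PBM Analysis Suite were given to each ungapped eight-base word pooled with its reverse complement.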

Sequence	PBM E-score
AATCATCG	0.118
GGGCGACA	-0.251
CGGTCCAC	-0.137
AAGAGCCG	-0.101
GGGCACGA	-0.0512
GCCCCGGC	-0.11
AGCTACTA	-0.0239
GACTTATC	-0.147
CACTTGAC	-0.0536
AGAGACGC	-0.123
CGGTTGAA	-0.0167
GTACAGGA	0.244
ACTGTAAT	-0.0373
ACGCCGTG	-0.0381
ATTCTCAC	-0.0732
CTAGAGCA	-0.192
ATCTACTC	-0.0186
GCTATGCA	-0.166
ATCGGAGG	-0.133
ACATGCGG	-0.00764
AGTGGAGG	-0.13
CCCATTTA	0.0418
CACAAGCC	-0.0933
CGACGATC	0.205
AACAGTGT	-0.0329

Sequence	PBM E-score
CGCGACAA	0.107
AGCCACAT	0.0577
TAATATTA	0.188
CCTCTCGC	0.0887
ATCGCAAT	0.0771
CCACATAA	0.00895
CGGCGCAA	-0.0304
ACGTCACT	-0.0547
CTCACTTC	-0.0766
GATTTGGC	0.0042
ATGCCCGA	0.0914
AGCATAGA	-0.165
ATGGGGTC	-0.17
TGAGGTAA	-0.236
CGTAAACC	0.364
CGTCAAGA	-0.109
TAGACCTA	0.121
CTTCTTTC	-0.188
GCGCGAGA	0.0691
GCTTAAGC	0.0508
CTCGGATA	0.3
GATACACC	0.0438
AGGCCGGA	-0.0381
ACGAACGT	0.32
CATAGACG	-0.143

Sequence	PBM E-score
GAAGTCTC	0.0262
CGGAAACA	0.0351
CGAGGGCC	0.194
AAAGGAGG	-0.129
CAATAATC	0.00408
ATGATCAT	-0.141
CAGATACG	0.375
AAACGCCT	0.12
AGATATGA	-0.0601
CCACGTCA	-0.196
GATCGTGA	-0.103
AGATGTTA	-0.0817
TGAATTCA	0.0467
AAAAAGTT	-0.0419
GGACATCA	-0.0651
CGAGTGAA	0.146
GAAATGTA	0.00471
CGTCTGCA	-0.00627
CGCTCAGC	0.153
AAATCTCA	0.168
TGACCGCA	-0.127
CAGAATAC	0.113
CTCGAAGA	-0.23
ATCTAGAC	-0.0429
GTCTGAGA	-0.098

Sequence	PBM E-score
GACTTCCA	-0.202
CATCTCAA	-0.13
AGCAAATC	-0.0847
GGAGAGGA	-0.284
AGGGTCAC	-0.22
CCAATCCG	-0.0814
GAGGGTTA	-0.0346
TAAATGTA	0.0369
CCCCGCAC	7e-05
AATGTAAC	-0.0595
CATTCTCG	0.0534
CCATGGGC	-0.368
GCCGACCC	-0.256
ACTGTTGC	-0.0837
GAGTCAAA	-0.229
AGCTAAGA	-0.0858
ACGTCATC	0.0767
CGCCCATA	0.102
TAGTCAGA	-0.16
GCCGTGTA	0.231
ATTGATAC	0.173
CACATAAA	0.192
GGTGTGAC	-0.143
CAACACTC	-0.0828
GAGGGTCC	-0.162

Sequence	PBM E-score
AACTCATG	-0.0272
AATTGCAG	-0.0277
ACGGCACG	0.206
CGTATGTA	0.387
TACTCACA	-0.0916
CGAGCGAA	0.199
CGTCGTAG	0.37
TTGCCCAA	-0.0249
GTCGAGAC	0.0577
CCTTGACC	-0.326
GGCGAGAA	-0.0746
AGTCCGTG	-0.0992
CTGAACTA	-0.104
CCTACCTA	-0.153
AAAGCCGA	-0.111
CAGAGCCC	-0.207
CCGTGGGA	-0.295
CATGATCC	-0.166
GCGCCGAA	-0.0176
ACCCAGCC	-0.218
GGCGGTCA	0.0352
TAGTTAAA	0.0817
GCAAGAGA	-0.0845
GCTCGTAC	0.477
GGCGGTTA	0.0382

Sequence	PBM E-score
ACCGATTC	0.00366
GAATCATC	0.0541
CATCTGAA	-0.154
AGTCAGGC	-0.087
CGTCGTCA	0.055
TCGAACCA	-0.125
CTGTGATA	-0.196
ATCCGAAT	0.218
ATAGACTG	-0.0992
CGAAACTC	0.0921
CCGGAACG	0.376
AAGGATCT	-0.19
AGCAGGAA	-0.0702
ACGACCAG	0.296
TGTATTAA	0.126
ACCTCTAA	-0.0519
AGGCTGGG	-0.222
CGATATTC	0.0159
AATACATG	-0.187
ACGCGCGC	0.214
AAACCCCA	-0.171
CTATCAGA	-0.13
CTGTGGTC	-0.0389
AGCATTAA	0.0875
GTCTTCCA	-0.313

Sequence	PBM E-score
ACATAATG	-0.0246
ATAATTAC	0.0651
ACGATAAT	0.335
ATCCGCAG	-0.0954
CGCTATAG	-0.00468
GCACGTAA	0.0974
GTAGTAAA	0.0535
ACAACTAC	-0.129
GTCTTCAC	-0.0357
GGGGCCTA	-0.225
CTATCAAG	-0.158
AGATATAC	0.243
AATGGAGG	-0.251
ACAGGAGG	-0.169
GCGACGGA	0.0438
ATAGAGCC	0.00631
AAGGACAG	-0.169
GTTAGGTA	0.18
ATATCGTA	0.427
CTGCGAAC	-0.0121
AAAGACTC	-0.212
ATATTAGA	0.0328
GTGTTAAA	0.121
CCATGCCG	-0.135
GGCAGGTA	-0.0971

Sequence	PBM E-score
CCAAGGTA	-0.0848
ACCGGCTA	-0.145
GGAAGCGA	0.145
GCTTGACC	-0.149
AAGGATAA	-0.194
AAAGGAGA	-0.22
AGAAACGC	-0.037
ATGTCCGG	-0.241
ATAACGCA	-0.0164
GTAGGTAA	-0.0947
TAACCACA	0.00669
TGTAAACA	-0.0818
CATCGCTA	0.0355
CCGGAAAG	-0.147
GGCTAACC	-0.0479
GCTCGTCA	0.0569
AAACTAAA	0.112
ACAGCTAC	-0.0575
CTAATGTA	0.0584
GAAGAAAC	0.0334
CTCTGACC	-0.181
CTTCTGTC	-0.124
ACATGTAC	0.12
CGCATTTC	0.0626
CGGGAAAG	-0.0714

Sequence	PBM E-score
ACGGTCAT	0.122
CCAAATCA	-0.0311
GGACGTAA	0.0273
GGGAACTA	0.0723
CACGGAGC	-0.119
ACCCCCGA	-0.158
GCATACCA	0.00545
ACCCATGA	-0.237
ACGGATGC	0.189
TGGATCAA	-0.162
ATAGACCC	-0.0795
CAGTCGAC	0.0776
AGTCTGTA	0.196
GGCTCCAA	-0.185
AGAGTGGC	-0.188
GATGAAGA	-0.0943
GAGCCCGC	0.00594
ATCGCATC	-0.00142
CCAGCAGG	-0.145
GTGCGGTA	0.151
CTTACTCA	-0.206
AGCTCAAT	-0.126
AGTAGAGC	-0.207
TGTCCGAA	0.113
AGGTTGAG	-0.171

Sequence	PBM E-score
ATAATGAC	-0.107
CTGCGCCA	-0.117
AACTTCGC	0.155
ACAGGAGC	-0.057
AACCTCTA	-0.0646
CTGTTTTC	-0.0151
GTAAGGAC	-0.0992
GTAACGGA	0.208
AAGAGCTT	-0.0155
GTTTAAAC	0.356
ACAGGACG	-0.152
AACTGGAG	-0.161
AGGTCTGC	-0.144
ATAGAAAC	0.0284
AACGTATC	0.142
CCGGTACC	-0.196
GAAGTGTA	-0.0563
CCTCCGTC	-0.255
AATACTAC	0.143
AGTAGACG	0.0762
ACGCTATC	0.112
CGTGTAAG	0.129
TATGACCA	0.0212
GATTCCAA	-0.0872
GCGTGCCA	-0.128

Sequence	PBM E-score
ATACTATC	0.0165
CCCAGGAC	-0.273
AAGCACAC	-0.0833
ATCCCGGC	0.0725
CTATCGGA	0.0507
CAGGCTGG	-0.0415
CTAATCCC	-0.123
AAACAGCA	0.0181
AACAAAGA	0.0672
CTGGAGTA	0.00167
CTGTGCGA	0.217
AAAGCGCG	-0.03
CTAGACCC	-0.135
ATTTCCGA	0.107
TGTTTCAA	-0.0233
GCAATATA	0.00238
AAGTCTGC	-0.16
AGACTTCG	0.13
ACGCCTAA	0.0663
ACCCCCAA	-0.179
CGTGAGTC	0.0655
GCTACGGA	0.226
CAACACGC	-0.142
CGCCCATC	-0.157
CGATCTAG	-0.0452

Sequence	PBM E-score
ACTCCGAT	-0.279
ATGGGCTC	-0.0478
AGACCTTG	-0.186
AAACCTCC	-0.176
AGTTCTGC	0.0833
ACTAATAA	0.0239
CGCGTACG	0.4
ACCGGCTG	-0.293
CAAGCTTC	-0.0224
ACGGAACA	0.159
CCAATAAC	0.00883
CTTACTGC	-0.179
GCGACGTA	0.218
ACCGCGAA	0.0233
CATACCCC	-0.0287
GTTATCAA	-0.0859
ATCAGCGA	0.0575
CTTATGGA	-0.0859
GGTCATAC	0.148
GCCCCTCA	-0.0083
AACGTGAA	-6e-05
CGACACGC	0.125
ATCGATCG	0.136
ATGATGGA	-0.15
AATAGCTC	-0.144

Sequence	PBM E-score
AATCCTAG	-0.0768
GCCTTGAA	-0.189
GCGGTTTA	-0.011
ATGCGATA	0.158
ATGCGAGG	0.295
CCCGCAGA	-0.137
AAAACCCC	-0.124
TCTACACA	0.0099
TCCCCCCA	-0.408
CAAATGAA	0.19
AGCCACGC	-0.0888
AAGTTCCA	-0.151
ATAGTTTG	-0.0286
CAAGGGCC	-0.237
GAGGCTCC	-0.0334
TAAAGTTA	0.0564
CCGCGACC	-0.248
AAATTGCC	0.105
ATGGCTCC	-0.188
CCCGGTCG	0.0997
AGCTAGAA	-0.197
AGCTGAGA	-0.232
GGACGACC	-0.212
CAGCAACG	0.18
AAACGTTC	0.205

Sequence	PBM E-score
CTACCCCA	-0.159
CTGATCTA	-0.0914
AGCAGCGG	-0.0845
ACCGCTCT	-0.249
CATGAATC	-0.0543
AATCGTAA	0.368
CCAGCATC	-0.219
GAGACCGC	-0.222
CGCTTGTC	0.07
GTGCTGTA	0.0622
AGGAGTGG	-0.22
CACTAGGC	-0.255
CACCAAAA	-0.0642
ACTACGGA	-0.114
AACACTGC	-0.0369
ATTCAAGC	0.158
TCTGGTCA	-0.222
CAATCATA	-0.0431
TAAGGGCA	-0.0577
